Like-named read-outs stand apart in the source and are kept apart here.

The target of test [1] is T1, zonula occludens-1 (human (endogenous in left ventricular …, UniProt Q07157 1-1748)). The test is described as follows: co-IP.
The target in test [2] is T1, zonula occludens-1. The test is described as follows: co-IP. The source holds these as a separate data set.
T1 sequence (Q07157 whole entry): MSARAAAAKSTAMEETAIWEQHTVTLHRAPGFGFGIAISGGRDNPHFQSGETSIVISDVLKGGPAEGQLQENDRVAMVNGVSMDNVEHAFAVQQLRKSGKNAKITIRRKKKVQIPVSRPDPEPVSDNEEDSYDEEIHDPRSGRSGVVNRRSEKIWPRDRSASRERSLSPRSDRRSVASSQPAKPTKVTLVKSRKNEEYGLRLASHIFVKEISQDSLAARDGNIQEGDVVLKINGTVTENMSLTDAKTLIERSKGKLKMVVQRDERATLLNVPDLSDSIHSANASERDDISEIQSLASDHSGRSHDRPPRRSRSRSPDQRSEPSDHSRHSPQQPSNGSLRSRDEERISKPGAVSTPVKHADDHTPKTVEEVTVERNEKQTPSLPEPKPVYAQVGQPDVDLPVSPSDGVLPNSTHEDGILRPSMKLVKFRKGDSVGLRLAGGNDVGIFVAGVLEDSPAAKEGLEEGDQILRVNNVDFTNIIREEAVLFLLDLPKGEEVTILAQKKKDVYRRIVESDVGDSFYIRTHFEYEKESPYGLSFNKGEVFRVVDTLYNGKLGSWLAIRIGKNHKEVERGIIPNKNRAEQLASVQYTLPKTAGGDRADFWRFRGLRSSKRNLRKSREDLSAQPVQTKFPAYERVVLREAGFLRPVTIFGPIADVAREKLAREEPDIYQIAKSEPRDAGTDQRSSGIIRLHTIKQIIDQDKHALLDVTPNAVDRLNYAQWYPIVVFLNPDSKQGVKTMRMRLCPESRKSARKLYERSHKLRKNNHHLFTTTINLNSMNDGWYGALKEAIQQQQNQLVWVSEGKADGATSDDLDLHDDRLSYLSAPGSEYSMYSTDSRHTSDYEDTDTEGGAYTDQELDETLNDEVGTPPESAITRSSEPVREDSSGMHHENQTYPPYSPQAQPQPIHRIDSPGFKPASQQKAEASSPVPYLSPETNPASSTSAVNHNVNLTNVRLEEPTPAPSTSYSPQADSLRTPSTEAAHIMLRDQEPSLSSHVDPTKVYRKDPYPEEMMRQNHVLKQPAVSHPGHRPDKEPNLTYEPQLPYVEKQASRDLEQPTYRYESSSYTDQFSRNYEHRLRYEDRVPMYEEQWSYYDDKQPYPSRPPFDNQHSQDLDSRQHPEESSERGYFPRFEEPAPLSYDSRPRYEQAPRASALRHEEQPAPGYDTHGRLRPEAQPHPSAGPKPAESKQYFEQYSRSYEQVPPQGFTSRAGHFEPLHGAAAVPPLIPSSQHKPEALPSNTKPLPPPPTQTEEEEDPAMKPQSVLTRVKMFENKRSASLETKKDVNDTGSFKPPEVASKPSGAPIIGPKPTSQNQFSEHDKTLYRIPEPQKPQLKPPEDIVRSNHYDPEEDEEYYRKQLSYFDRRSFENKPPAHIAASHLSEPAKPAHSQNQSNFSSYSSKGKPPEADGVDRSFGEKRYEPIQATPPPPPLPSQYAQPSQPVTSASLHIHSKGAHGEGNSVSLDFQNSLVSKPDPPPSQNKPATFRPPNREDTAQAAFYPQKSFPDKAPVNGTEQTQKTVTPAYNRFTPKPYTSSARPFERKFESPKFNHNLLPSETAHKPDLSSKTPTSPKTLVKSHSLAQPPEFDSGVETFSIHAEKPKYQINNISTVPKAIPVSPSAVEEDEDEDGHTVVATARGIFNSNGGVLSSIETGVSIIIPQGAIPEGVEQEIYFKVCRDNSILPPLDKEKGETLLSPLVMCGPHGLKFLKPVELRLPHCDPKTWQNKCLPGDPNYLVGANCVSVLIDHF

B1: connexin43 (natural protein)
chain: not shown
In the case of B1, in the test with zonula occludens-1 [1], the “proportion of Cx43 brought down by ZO-1, relative to Cx43 in the sample (DCM)” value amounted to 12.8% and the “proportion of Cx43 brought down by ZO-1, relative to Cx43 in the sample (ICM)” value was 12.8%. In the test with zonula occludens-1 [2], the “proportion of Cx43 brought down by ZO-1, relative to Cx43 in the sample (DCM)” value was 10.2% and the “proportion of Cx43 brought down by ZO-1, relative to Cx43 in the sample (ICM)” value was found to be 11.5%.

These data come from article PMC5436744 (Cardiovascular Research, 2007).
